Where “and” joins values, the source holds several entries; their conditions need not be identical. Equal entries are not always repeated. Among all 230,000 compounds or so, about 3,600 (1.6%) were called active. This list was built around the results that the source calls inconclusive (neither active nor inactive); the mix of calls is not that of the screen. Calls follow the shape of the dose curve; as a rule, active = well fitted inhibition curve with a large enough effect (not every such curve was filed as active); inconclusive = small, poorly fitted or top-dose-only effect, or another doubt; inactive = no such curve, though single readings can be large or run the other way. Potencies beside an inconclusive call are fits to weak or partial responses and may not hold up.
Each compound was assayed against Lysine-specific demethylase 4E (Homo sapiens) (UniProt B2RXH2) (assay: qHTS Assay for Inhibitors of Human Jumonji Domain Containing 2E (JMJD2E)). Conditions: JMJD2E catalytic domain, FDH-coupled NADH fluorescence (FDH is formaldehyde dehydrogenase); series mostly up to 57.1 µM.
UniProt B2RXH2, sequence (B2RXH2 whole entry, looked up, the tested form may be a part): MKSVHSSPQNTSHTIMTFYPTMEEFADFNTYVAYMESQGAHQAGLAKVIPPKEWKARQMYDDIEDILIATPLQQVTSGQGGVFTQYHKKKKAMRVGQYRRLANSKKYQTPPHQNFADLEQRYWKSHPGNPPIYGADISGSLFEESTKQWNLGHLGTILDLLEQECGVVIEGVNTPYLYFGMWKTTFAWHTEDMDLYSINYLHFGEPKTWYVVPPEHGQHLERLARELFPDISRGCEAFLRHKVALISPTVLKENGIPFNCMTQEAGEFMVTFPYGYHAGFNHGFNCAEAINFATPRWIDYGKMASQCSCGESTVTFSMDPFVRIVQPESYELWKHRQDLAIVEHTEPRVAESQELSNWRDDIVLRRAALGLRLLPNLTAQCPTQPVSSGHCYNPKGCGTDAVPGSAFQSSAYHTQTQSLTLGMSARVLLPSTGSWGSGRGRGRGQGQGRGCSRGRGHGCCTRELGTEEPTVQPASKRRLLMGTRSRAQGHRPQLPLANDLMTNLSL
Also: nearly all actives have a fitted effect of over 50% in size.
Potency is read from the fitted curve at half-maximal effect; tags tell the direction and shape of the fitted curve.

Structure (SMILES)	Potency
CCCCN(Cc1cc2cc(C)ccc2[nH]c1=O)C(=O)c1ccccn1	inconclusive: 28.2 µM [inhibitor, single point]
CCOC(=O)c1c(-c2cccs2)csc1NC(=O)CN1CC(C)OC(C)C1 (centres undefined)	inconclusive: 39.8 µM [inhibitor, single point]
CCCCCCN1C(=O)C(O)=C(C(C)=O)C1c1ccc(Cl)cc1 (centres undefined)	inconclusive: 22.4 µM [inhibitor, single point]
COCCCNC(=O)c1cc(Sc2nnc(C)s2)nc2ccccc12	inconclusive: 28.2 µM [inhibitor, single point]
Cc1cc(C(=O)Nc2sc3c(c2C#N)CCC(C(C)(C)C)C3)no1 (centres undefined)	inconclusive: 3.16 µM [inhibitor, full curve]
COc1ccc2cnn(-c3ccccc3C)c(=O)c2c1OC	inconclusive: 28.2 µM [inhibitor, single point]
Cc1sc2ncn(CC(=O)Nc3cccc(S(N)(=O)=O)c3)c(=O)c2c1-c1ccccc1	inactive
CCCC(C)NC(=O)c1cccc(Oc2ccccc2)c1 (centres undefined)	inactive
CC(=O)C1=C(O)C(=O)N(c2nccs2)C1c1ccc(F)cc1 (centres undefined)	inconclusive: 31.6 µM [inhibitor, single point]
CNC(=O)c1ccc(OC2CSC2)cc1	inactive
Cc1cccc(C(=O)NCN2CCN(c3ccccc3C#N)CC2)c1	inconclusive: 31.6 µM [inhibitor, partial curve] and inconclusive: 25.1 µM [inhibitor, partial curve]
C[C@H]1COc2c(N3CCN(C)CC3)c(F)cc3c(=O)c(C(=O)O)cn1c23	inconclusive: 11.2 µM [inhibitor, partial curve]
CCN(Cc1cc2cccc(C)c2[nH]c1=O)C(=O)c1ccccc1OC	inconclusive: 35.5 µM [inhibitor, single point]
CN1CCN(C(=O)c2c(O)c3cccc4c3n(c2=O)CC4)CC1	inconclusive: 35.5 µM [inhibitor, single point]
CN(C)c1ccc(N=Nc2ccc(S(=O)(=O)O)cc2)c2ccccc12	inactive
CCCN(CC1CC1)C(=O)CSc1nnc(-c2cc(-c3cccs3)nc3ccccc23)o1	inconclusive: 22.4 µM [inhibitor, partial curve]
CCC(NC(=O)OC(C)(C)C)C(=O)Oc1ccc2c3c(c(=O)oc2c1)CCC3 (centres undefined)	inconclusive: 28.2 µM [inhibitor, partial curve]
CCOc1cc(/C=N/Nc2nc3ccccc3[nH]2)cc(Br)c1OCC(=O)N(C)C	inconclusive: 39.8 µM [inhibitor, single point]
CC(C)Cc1ccc(C(C)C(=O)OCC(=O)c2c[nH]c3ccccc23)cc1 (centres undefined)	inactive
CN(C)CCNC(=O)c1cc2c(=O)n(C)c3ccccc3c2n1C	inconclusive: 20 µM [inhibitor, partial curve]
CCOc1ccc(Br)cc1CN(CC)CC	inactive
COC(=O)c1c(NC(=O)CCNCc2ccco2)sc2c1CCC2	inconclusive: 39.8 µM [inhibitor, single point]

Structure (SMILES)	Potency
O=C(CSc1ccccn1)N/N=C/c1cc([N+](=O)[O-])ccc1O	active: 12.6 µM
CCn1c(=O)c(=O)[nH]c2cc(C(=O)Nc3ccc(S(=O)(=O)N4CCCC4)cc3)ccc21	inconclusive: 35.5 µM [inhibitor, single point]
COc1ccccc1N1CCN(CC(=O)Nc2ccc(CN3CCCCC3)cc2)CC1	inconclusive: 28.2 µM [inhibitor, single point]
CC(=O)Oc1cc2cccc(OC(C)=O)c(=O)c2c(OC(C)=O)c1OC(C)=O	active: 11.2 µM
COCCn1c(=O)[nH]c2cc(C(=O)NC(C)C)ccc2c1=O	inconclusive: 35.5 µM [inhibitor, single point]
Cc1ccccc1OCc1nc2ccc(S(=O)(=O)N3CCOCC3)cc2[nH]1	inactive
Cn1c(N)nc2ccccc2c1=O	inconclusive: 25.1 µM [inhibitor, partial curve]
Cc1ccc(S(=O)(=O)NCCC(=O)NCc2ccc3c(c2)OCO3)cc1C	inactive
Cn1c(=O)c2c(=O)cc(NNC(=O)CC#N)[nH]c2n(C)c1=O	inconclusive: 39.8 µM [inhibitor, single point]
Oc1ccc(CNc2ccccc2F)c2cccnc12	active: 7.94 µM
CCCCNC(=O)N(O)C1N(CCCC)C(=O)N(CC(=O)OC)C1(C)C (centres undefined)	inactive
NC(CO)C(=O)NNCc1ccc(O)c(O)c1O (centres undefined)	active: 10 µM and active: 3.16 µM and active: 2.24 µM
Cc1ccc(C(CC(=O)O)Nc2nc(N3CCCCC3)nc(N3CCCCC3)n2)cc1 (centres undefined)	inconclusive: 35.5 µM [inhibitor, single point]
CCCc1nc(NCCO)c(C#N)c2c1CCCC2	inconclusive: 31.6 µM [inhibitor, partial curve]
NC1(C(=O)O)CCc2cc(C(=O)O)ccc21 (centres undefined)	inconclusive: 28.2 µM [inhibitor, partial curve]
O=c1oc(-c2ccc(Br)o2)nc2ccccc12	inconclusive: 35.5 µM [inhibitor, single point]
O=C(NC1CCCC1)c1sc(=S)n2c1[nH]c(=O)c1ccccc12	inactive
CCOc1ccc2nc(NCCNC(=O)C3CC3)c(C)cc2c1	inconclusive: 28.2 µM [inhibitor, partial curve]
c1csc(-c2ccc3ccccc3n2)c1	inconclusive: 25.1 µM [inhibitor, partial curve]
COc1ccc2[nH]cc(CCNC(=O)C3CCCNC3=O)c2c1 (centres undefined)	inconclusive: 25.1 µM [inhibitor, partial curve]
Cc1ccc(S(=O)(=O)Nc2ccc(-c3nc4cc(NS(=O)(=O)c5ccc(C)cc5)ccc4o3)cc2)cc1	inconclusive: 25.1 µM [inhibitor, partial curve]
CCOC(=O)c1ccc(N2C(=O)C(CC(N)=O)N(CCc3ccc(OC)c(OC)c3)C2=S)cc1 (centres undefined)	inconclusive: 17.8 µM [inhibitor, partial curve]

— PubChem BioAssay AID2147 (National Center for Advancing Translational Sciences (NCATS), 2009)
